Results on 45 compounds are retold here after paper PMC4336329 (PLoS ONE, 2015).

Each structure is given as a SMILES string. The campaign covered roughly 310,000 compounds. About 2,200 (0.71%) showed an effect of 50% or more. The effect is printed as a negative number. The list shows a part of the results.

Chain of human ether-à-go-go-related gene (hERG) potassium channel (Q12809 whole entry, looked up): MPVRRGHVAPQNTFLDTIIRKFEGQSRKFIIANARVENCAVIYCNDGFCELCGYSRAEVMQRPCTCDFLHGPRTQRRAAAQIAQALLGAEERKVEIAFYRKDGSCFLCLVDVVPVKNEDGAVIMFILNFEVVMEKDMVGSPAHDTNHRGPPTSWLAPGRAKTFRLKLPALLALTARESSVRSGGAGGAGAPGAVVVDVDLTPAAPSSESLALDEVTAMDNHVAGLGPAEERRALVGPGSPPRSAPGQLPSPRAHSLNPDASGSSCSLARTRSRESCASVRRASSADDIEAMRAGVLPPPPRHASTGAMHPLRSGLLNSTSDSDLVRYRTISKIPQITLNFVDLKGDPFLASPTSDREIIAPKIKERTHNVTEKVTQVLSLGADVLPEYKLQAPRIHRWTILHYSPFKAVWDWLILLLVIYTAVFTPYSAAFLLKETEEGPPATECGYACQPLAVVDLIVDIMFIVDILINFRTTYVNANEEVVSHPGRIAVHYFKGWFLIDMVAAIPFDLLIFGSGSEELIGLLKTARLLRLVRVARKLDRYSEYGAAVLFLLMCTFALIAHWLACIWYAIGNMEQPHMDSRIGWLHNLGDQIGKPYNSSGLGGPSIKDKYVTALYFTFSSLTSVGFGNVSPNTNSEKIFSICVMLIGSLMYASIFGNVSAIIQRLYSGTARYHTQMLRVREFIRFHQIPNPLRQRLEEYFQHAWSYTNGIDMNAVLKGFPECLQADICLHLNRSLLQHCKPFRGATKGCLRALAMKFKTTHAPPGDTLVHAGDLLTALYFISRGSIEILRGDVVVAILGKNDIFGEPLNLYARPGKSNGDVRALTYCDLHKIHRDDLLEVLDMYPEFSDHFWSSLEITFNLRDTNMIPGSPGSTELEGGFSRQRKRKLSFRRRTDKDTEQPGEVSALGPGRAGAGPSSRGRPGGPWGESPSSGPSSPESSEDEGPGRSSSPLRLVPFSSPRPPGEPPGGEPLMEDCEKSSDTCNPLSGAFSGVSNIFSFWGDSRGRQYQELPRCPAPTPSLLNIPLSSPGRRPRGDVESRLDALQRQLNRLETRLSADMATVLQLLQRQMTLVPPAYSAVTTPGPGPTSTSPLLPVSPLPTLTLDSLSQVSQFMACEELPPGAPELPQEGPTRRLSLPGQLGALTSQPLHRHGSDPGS

The assay concerns the target human ether-à-go-go-related gene (hERG) potassium channel (human, UniProt Q12809). Kind of assay: primary screen, population patch clamp on CHO cells stably expressing hERG.
With `Cc1cc(OCc2cc(C(=O)NCc3csc(C(C)C)n3)no2)cc(C)c1Cl`, the “hERG current change (%, negative = inhibition) at 1uM” value is recorded as 6.13%.
With `CC1(C)CC(=O)C=C(NCc2ccco2)C1` the figure was 5.26%; with `O=C(NCCc1ccc(F)cc1)c1ccncc1`, 5.58%.
As to `Cc1ccccc1OCC(=O)NNC(=O)CCN1C(=O)c2ccccc2C1=O`, the “hERG current change (%, negative = inhibition) at 1uM” value was found to be 5.62%.
`c1cnc2cc(-c3ccsc3)ncc2c1`: the “hERG current change (%, negative = inhibition) at 1uM” value is given as 11.9%.
In the case of `COc1cccc(OC)c1OCCCOc1ccc(C)cc1Br`, the “hERG current change (%, negative = inhibition) at 1uM” value is recorded as 14.8%.
As for `COc1ccccc1CCNC(=O)C(=O)NCC1OCCN1S(=O)(=O)c1ccccc1` (stereo not drawn), the “hERG current change (%, negative = inhibition) at 1uM” value came to 7.32%.
`CC(C)c1ccc(NC(=O)CSc2nnc(OC(=O)N(C)C)n2C2CC2)cc1`: the “hERG current change (%, negative = inhibition) at 1uM” value stood at 5.72%.
With `CC(C)(C)c1ccc(COn2c(=O)c(-c3ccco3)[n+]([O-])c3ccccc32)cc1` the figure was 20.1%; with `Nc1nc(NCC(=O)O)nc(NCc2ccccc2)c1[N+](=O)[O-]`, 13.3%.
In the case of `CCC(Sc1nc2c(cnn2-c2ccccc2)c(=O)[nH]1)C(=O)OC` (stereo not drawn), the “hERG current change (%, negative = inhibition) at 1uM” value worked out at 2.96%.
Turning to `O=C(COC(=O)c1n[nH]c(=O)c2ccccc12)c1ccccc1`, the “hERG current change (%, negative = inhibition) at 1uM” value worked out at 12.9%.
For the compound `O=C(CN1C(=O)C2C3C=CC(C3)C2C1=O)Nc1nc(SCc2ccc(Cl)cc2)n[nH]1` (stereo not drawn), the “hERG current change (%, negative = inhibition) at 1uM” value came out at 3.35%.
As to `Cn1c(NCc2cccnc2)nc2c1c(=O)n(Cc1ccccc1F)c(=O)n2C`, the “hERG current change (%, negative = inhibition) at 1uM” value was found to be 2.05%.
As to `CC(=O)N1CCN(Cc2nc3cc(NC(=O)COc4ccccc4)ccc3n2C)CC1.Cl`, the “hERG current change (%, negative = inhibition) at 1uM” value was 6.75%.
On to `Cc1cccc(N(C(=O)c2ccc(CN3CCOCC3)o2)C(C(=O)NC(C)(C)C)c2ccc(F)cc2)c1` (stereo not drawn), for which the “hERG current change (%, negative = inhibition) at 1uM” value was found to be 13.3%.
Take `CC(=O)Nc1cccc(/C(C)=N/NC(=O)c2cccs2)c1`: the “hERG current change (%, negative = inhibition) at 1uM” value was found to be 12.7%.
Take `CCOc1ccc(CCNC(=O)COC(=O)Cn2cnc3ccccc3c2=O)cc1OCC`: the “hERG current change (%, negative = inhibition) at 1uM” value is recorded as 14.2%.
In the case of `C/C(=N\Nc1nc2ccccc2[nH]1)c1ccc2c(c1)OCO2`, the “hERG current change (%, negative = inhibition) at 1uM” value came out at 12.7%.
Under `Cc1ccc(C)c(NC(=O)CN(C)C(=O)c2cccc(-n3cccc3)c2)c1` stands -1.33%; under `Cc1ccc(N)c(N)c1`, 7.71%.
Turning to `O=C(COC(=O)/C=C/c1ccco1)NCc1ccco1`, the “hERG current change (%, negative = inhibition) at 1uM” value came to 9.79%.
With `NC(=O)[C@@H]1CCCN1Cc1nc(Cc2ccccc2F)no1`, the “hERG current change (%, negative = inhibition) at 1uM” value was 9.4%.
Under `N#Cc1nccnc1S(=O)(=O)c1cccs1` stands 11.4%.
For `Cc1cc(NC(=O)CCC(=O)N(Cc2ccco2)C(C(=O)NC2CCCCC2)c2ccccc2)no1` (stereo not drawn), the “hERG current change (%, negative = inhibition) at 1uM” value is 8.22%.
For `Cc1ccc(NC(=S)N2CCC(NC(=O)c3cccc(F)c3)CC2)cc1`, the “hERG current change (%, negative = inhibition) at 1uM” value is listed as 6.17%.
As to `OCCC1CN(Cc2cccc(-c3ccco3)c2)CCN1Cc1ccsc1` (stereo not drawn), the “hERG current change (%, negative = inhibition) at 1uM” value was -17.3%.
Take `COc1cc2c(cc1OC)[C@H](C)N(C(=O)CSc1nc(O)c(C(C)C)c(=O)[nH]1)CC2`: the “hERG current change (%, negative = inhibition) at 1uM” value is 6.61%.
As to `CCC[N+](CC#Cc1ccccc1)(CCC)CC(=O)c1ccc(Cl)cc1`, the “hERG current change (%, negative = inhibition) at 1uM” value is on record as -9.39%.
Under `C=CCNC(=S)N1CCC(C(=O)c2ccc(OC)cc2)CC1` stands -3.09%.
Turning to `COC(=O)C1=CN(Cc2ccc(F)cc2)C=C(C(=O)OC)C1c1ccc(O)c(OC)c1`, the “hERG current change (%, negative = inhibition) at 1uM” value is given as 6.53%.
With `CCN(CC)c1ccc(C2N(C(=O)N3CCOCC3)CCN2S(=O)(=O)c2ccc(C)cc2)cc1` (stereo not drawn) the figure was 1.26%; with `CCOC(=O)C1CCN(C2CCN(Cc3nc(-c4ccccc4)no3)CC2)CC1`, -38.2%.
`O=C(CSc1nnc(C2CC2)n1CC1CCCO1)Nc1cccc(Cl)c1` (stereo not drawn): the “hERG current change (%, negative = inhibition) at 1uM” value is on record as -2.01%.
For the compound `CC(C)c1ccc(N=Cc2c(O)c3ccccc3oc2=O)cc1`, the “hERG current change (%, negative = inhibition) at 1uM” value is reported as 13.1%.
With `COc1ccc(N(Cc2cc3cccc(C)c3[nH]c2=O)S(=O)(=O)c2ccc(Cl)cc2)cc1` the figure was 10.7%; with `Cc1cccc(N2C(=O)/C(=C/c3ccc(N4CCN(C)CC4)o3)C(=O)NC2=S)c1C`, 13.9%.
Consider `CCn1c(-c2cccc(S(=O)(=O)N3CCCC3)c2)n[nH]c1=S`, for which the “hERG current change (%, negative = inhibition) at 1uM” value is 1.5%.
For the compound `CN(C)S(=O)(=O)c1cccc(NC(=O)c2cc(=O)[nH]c3ccccc23)c1`, the “hERG current change (%, negative = inhibition) at 1uM” value is 4.2%.
As for `O=C1CC(NC23CC4CC(CC(C4)C2)C3)C(=O)N1c1ccc2c(c1)OCO2` (stereo not drawn), the “hERG current change (%, negative = inhibition) at 1uM” value is 9.1%.
With `O=C(CNC(=O)c1ccc(Cl)cc1Cl)OCN1C(=O)c2ccccc2C1=O`, the “hERG current change (%, negative = inhibition) at 1uM” value is given as 8.3%.
With `O=C(NCc1ccccc1CN1CCCC1)c1cccc(S(=O)(=O)Nc2ccc(F)cc2)c1`, the “hERG current change (%, negative = inhibition) at 1uM” value was -35.7%.
Consider `CCCc1cc(=O)[nH]c(SCC(=O)NC2(C#N)CCCCC2)n1`, for which the “hERG current change (%, negative = inhibition) at 1uM” value is on record as 5.65%.
`CCOC(=O)c1c(NC(=O)CCC(=O)N2CCOCC2)sc2c1CC(C)(C)OC2`: the “hERG current change (%, negative = inhibition) at 1uM” value came to 3.56%.
`O=C(O)c1cc(=O)n(Cc2ccccc2)c(=O)[nH]1`: the “hERG current change (%, negative = inhibition) at 1uM” value came out at 9.85%.
